The values that follow come from PubChem BioAssay AID1508642 (National Center for Advancing Translational Sciences (NCATS), 2021).

About 200 (0.47%) of roughly 43,000 compounds were called active. About 12% were inconclusive and are not listed. The call rests on the fitted dose curve; in most records, active means well fitted cell-killing curve with a large enough effect; inconclusive means small, poorly fitted or top-dose-only effect, or effect the other way; inactive means flat fitted curve, though single readings scatter. The list shows a part of the results.
On the % scale 0 is the no-effect control and ±100 the full control effect.

A short description of this assay: Cell viability qHTS assay in S16 Pmp22-F2sN cells. Further: nearly all actives have a fitted effect of over 65% in size. The note with it: S16 Pmp22-F2sN Schwann cells (luciferase reporters placed in the Pmp22 gene) viability, CellTiter-Glo, 24 h; series mostly up to 57.5 µM; activity change, negative = cytotoxicity: at the top concentration. The method in brief: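 Seed 500-1,000 S16 Pmp22-F2sN cells per well in phenol-red-free DMEM with 10% heat-inactivated FBS; pin-add 23 nL compound; incubate 24 h at 37C; add CellTiter-Glo, wait 15 min protected from light; read luminescence.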
Background: qHTS replaces the single test concentration by a dilution series.
On to `CCOC(=O)c1cc(OC(=O)c2cccc(C)c2)n(-c2ccccc2)n1`, for which the “activity change, negative = cytotoxicity” value is inactive: 2.72%.

As to `COc1cccc(CNc2ncnc3onc(-c4ccc(F)cc4)c23)c1`, the “activity change, negative = cytotoxicity” value is inactive: 0.756%.

As for `CC(=O)Nc1nonc1-c1nnc(SCC(=O)Nc2cc(C)ccc2C)n1-c1ccccc1`, the “activity change, negative = cytotoxicity” value is inactive: -2.69%.

As for `COc1cccc2cc(-c3nc4sc(C(=O)Nc5ccc(F)cc5F)c(C)c4c(=O)[nH]3)c(=O)oc12`, the “activity change, negative = cytotoxicity” value was inactive: -2.21%.

Take `COCc1cc(C)nc2sc3c(=O)n(-c4cc(C)ccc4C)nnc3c12`: the “activity change, negative = cytotoxicity” value is inactive: 17%.

Turning to `CCOC(=O)c1ccccc1NC(=O)N1CCN2CCCCC2C1` (stereo not drawn), the “activity change, negative = cytotoxicity” value was inactive: -2.18%.

On to `Cc1ccc(C)c(N2CCN(c3ncnc4onc(C)c34)CC2)c1`, for which the “activity change, negative = cytotoxicity” value was inactive: -4.42%.

Turning to `COCCNC(=O)CSc1nc(-c2ccc(F)cc2)[nH]c1-c1ccc(Cl)cc1`, the “activity change, negative = cytotoxicity” value is inactive: -0.798%.

`CC(CNC(=O)Cn1ncc2c3ccccc3n(Cc3cccc(Cl)c3)c2c1=O)c1ccccc1` (stereo not drawn): the “activity change, negative = cytotoxicity” value is inactive: -23.8%.

With `COc1ccc(OC)c(C2CC(=O)N(c3cccc(C)c3)C3=C2C(=O)OC3)c1` (stereo not drawn), the “activity change, negative = cytotoxicity” value was inactive: 3.94%.

For the molecule `Cc1cccc(CC(=O)NC2CC(=O)N(c3cccc(F)c3)C2)c1` (stereo not drawn), the “activity change, negative = cytotoxicity” value is inactive: 4.69%.

Take `COc1ccc(OC)c(NC(=O)C2CCN(S(=O)(=O)c3ccc(C)cc3)CC2)c1`: the “activity change, negative = cytotoxicity” value is inactive: 3.85%.

With `CC(C)CCNC(=O)C(=O)Nc1c2c(nn1-c1ccccc1)CS(=O)(=O)C2`, the “activity change, negative = cytotoxicity” value is inactive: -3.11%.

`COc1ccccc1N1CCN(S(=O)(=O)c2ccc(-c3cc(C(F)(F)F)on3)s2)CC1`: the “activity change, negative = cytotoxicity” value was inactive: -11.1%.

Take `CNS(=O)(=O)c1cn(CC(=O)Nc2ccc(OC)c(Cl)c2)cc1S(=O)(=O)NC`: the “activity change, negative = cytotoxicity” value is inactive: 16.1%.

Regarding `CN(C(=O)CSc1nc2ncccc2o1)c1ccc(F)cc1`, the “activity change, negative = cytotoxicity” value is inactive: 2.7%.

`CCCOc1ccc(-c2cccc(NS(=O)(=O)c3cc(OC)ccc3OC)c2)nn1`: the “activity change, negative = cytotoxicity” value was inactive: 3.95%.

Take `O=C(NCc1ccc(Cl)cc1)c1cnc2sc(N3CCCCCC3)nn2c1=O`: the “activity change, negative = cytotoxicity” value was inactive: 4.57%.

Consider `COc1ccc(C(c2c(O)cc(C)n(Cc3ccco3)c2=O)N2CCN(c3ccccc3)CC2)cc1` (stereo not drawn), for which the “activity change, negative = cytotoxicity” value is inactive: -8.65%.

As for `CCN(CC)c1ccc(NC(=O)c2cnn3c(C(F)F)cc(-c4ccccc4)nc23)cc1`, the “activity change, negative = cytotoxicity” value is inactive: -14.7%.

Regarding `O=C(CCC(=O)N1Cc2ccccc2Oc2ncccc21)NCc1ccccc1Cl`, the “activity change, negative = cytotoxicity” value is inactive: 4.87%.

Turning to `Cc1ccccc1-n1nc(CO)c(C(=O)NCCc2ccccc2)n1`, the “activity change, negative = cytotoxicity” value is inactive: 3.45%.

Consider `COc1cccc(NC(=O)C(=O)NCC(c2cccnc2)N2CCN(c3ccccc3)CC2)c1` (stereo not drawn), for which the “activity change, negative = cytotoxicity” value is inactive: 1.38%.

With `COc1ccc(OC)c(CNc2ncnc3onc(-c4ccc(Cl)cc4)c23)c1`, the “activity change, negative = cytotoxicity” value is inactive: -8.76%.

Take `CCOC(=O)CSc1nc2ccc(NC(=O)COc3ccccc3)cc2s1`: the “activity change, negative = cytotoxicity” value is inactive: 11.5%.

Regarding `Cc1cccc(CSc2cn(CC(=O)N3CCCCCC3)c3ccccc23)c1`, the “activity change, negative = cytotoxicity” value was inactive: -5.14%.

For the molecule `CC1CCc2c(sc(NC(=O)c3ccccc3)c2C(=O)Nc2ccccc2)C1` (stereo not drawn), the “activity change, negative = cytotoxicity” value was inactive: 9.63%.

Regarding `CCOc1ccc(-c2nonc2NC(=O)COc2ccc(C)c(C)c2)cc1OCC`, the “activity change, negative = cytotoxicity” value was inactive: 1.38%.

Take `O=C(c1ccc2c(c1)N(Cc1cccc(Cl)c1)C(=O)c1ccccc1S2(=O)=O)N1CCN(c2cccc(C(F)(F)F)c2)CC1`: the “activity change, negative = cytotoxicity” value was inactive: -0.708%.

Consider `CCOc1ccc(NC(=O)CSc2nnc(NC(=O)Nc3ccccc3)s2)cc1`, for which the “activity change, negative = cytotoxicity” value is inactive: 1.56%.

`CCOc1ccc(-c2cnc(NCc3cccc(Cl)c3)n2C)cc1`: the “activity change, negative = cytotoxicity” value was inactive: 4.01%.

`COc1ccc(C(=O)CCC(=O)Nc2cccc(C(C)=O)c2)cc1`: the “activity change, negative = cytotoxicity” value is inactive: 0.997%.

For the molecule `COc1ccc(CCNC(=O)Cn2c(=O)c3cccn3c3ccc(F)cc32)cc1OC`, the “activity change, negative = cytotoxicity” value was inactive: 10.1%.

`CCC(=O)N1CCc2cc(S(=O)(=O)CCC(=O)N3CCN(c4ccccc4F)CC3)ccc21`: the “activity change, negative = cytotoxicity” value was inactive: 14.9%.

In the case of `CC(=O)c1ccc(NS(=O)(=O)c2ccc3[nH]c4c(c3c2)CCCCCC4)cc1`, the “activity change, negative = cytotoxicity” value was inactive: -0.873%.

For the molecule `CCC(CC)C(=O)N1CCc2cc(OC)c(OC)cc2C1COc1ccccc1OC` (stereo not drawn), the “activity change, negative = cytotoxicity” value is inactive: 3.21%.

As to `Cc1ccc(C)c(Cn2nnc(C(=O)NCc3ccccc3)c2N)c1`, the “activity change, negative = cytotoxicity” value was inactive: -6.83%.

For the molecule `Cc1cc2oc(C(=O)Nc3nc(-c4ccccc4)ns3)c(C)c2cc1Cl`, the “activity change, negative = cytotoxicity” value is inactive: 3.25%.

Turning to `Cc1ccc(NC(=O)CN2C(=O)CCc3cc(S(=O)(=O)N4CCOCC4)ccc32)c(C)c1`, the “activity change, negative = cytotoxicity” value is inactive: -11.9%.

For `CCOc1ccc(CNC(=O)c2sc3nc(C)cc(C)c3c2-n2cccc2)cc1`, the “activity change, negative = cytotoxicity” value was inactive: -3.71%.

As to `CN1CCN(C(CNC(=O)C(=O)Nc2ccc(F)cc2)c2cccnc2)CC1` (stereo not drawn), the “activity change, negative = cytotoxicity” value was inactive: 7.71%.

On to `COc1ccc2c(c1)c1c(c(=O)n(Cc3ccccc3)c(=O)n1Cc1ccccc1Cl)n2C`, for which the “activity change, negative = cytotoxicity” value was inactive: 1.84%.

For the molecule `COc1ccc(OCC(=O)Nc2c(C(=O)N3CCN(c4ccccc4)CC3)oc3ccccc23)cc1`, the “activity change, negative = cytotoxicity” value was inactive: -0.828%.

For the molecule `CCc1ccc(NC(=O)C2=C(C)C(=O)OC23CCCCC3)cc1`, the “activity change, negative = cytotoxicity” value is inactive: -19.9%.

`COCCNc1nc2c(c(=O)n(Cc3cccc(Cl)c3)c(=O)n2C)n1C`: the “activity change, negative = cytotoxicity” value is inactive: -1.58%.

On to `Cc1ccc(NC(=O)C2CCC(CNS(=O)(=O)c3ccc4c(c3)CCCC(=O)N4)CC2)cc1F` (stereo not drawn), for which the “activity change, negative = cytotoxicity” value is inactive: -0.0679%.

For the molecule `COc1ccc(S(=O)(=O)N(CC(=O)NCCSc2ccccc2)c2ccc(C)cc2)cc1`, the “activity change, negative = cytotoxicity” value was inactive: 2.13%.

Turning to `CC(=O)c1cccc(NC(=O)Cc2ccc(NC(=O)N3CCCCc4ccccc43)cc2)c1`, the “activity change, negative = cytotoxicity” value is inactive: 2.23%.
